In the supplement of paper PMC5499739:
Over roughly 16,000 sequences, “Z-score” has its median near -0.37; the highest 2% begin near 3.1. The list shows a part of the results.

These sequences were tested on RBM10 RRM1-ZnF-RRM2 (GST-tagged construct) (assay: RNAcompete 7-mer binding Z-score; higher = stronger binding preference).
Protocol: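 RNAcompete: 20 pmol GST-tagged RBM10 RNA-binding constructs were incubated with a designed RNA pool of about 241,000 sequences up to 41 nt (1.5 nmol) on glutathione beads for 30 min at 4 °C and washed. Bound RNAs were identified by microarray hybridisation. Each RNA 7-mer is scored by a one-sided Z-score of its enrichment, computed over probes that contain the 7-mer within longer pool sequences.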

Row | Sequence | RNAcompete 7-mer binding Z-score
1 | UCCAGAA | -0.46
2 | GUAGGAU | 2.39
3 | UUAUCAC | -0.704
4 | UGUACAU | -0.293
5 | UUCCGGA | -0.479
6 | GUUUAUU | -0.537
7 | ACAAAGG | 2.29
8 | GCUCAAA | -0.442
9 | UAACUCA | -0.526
10 | CCGAUUU | -0.981
11 | CACAGGU | 0.676
12 | GGGGCCG | 1.24
13 | CAGCUCC | -0.857
14 | UGCUCAU | -0.821
15 | ACCCUAU | -0.854
16 | GACACGA | -0.0962
17 | GAUAUCG | 0.0204
18 | CUAGCAC | -0.694
19 | CAUGGUC | 0.0969
20 | AGUGUCG | 0.195
21 | UGCGGAA | 1.13
22 | AAGGGCG | 3.12
23 | GAUCGGU | 0.548
24 | CAGUCAG | 0.0131

Row | Sequence | RNAcompete 7-mer binding Z-score
25 | UUAUUCU | -0.854
26 | AUCCAAU | -0.508
27 | AAUUAAC | -0.439
28 | CAGUCCA | -0.49
29 | CGCUGAA | -0.548
30 | ACCUACU | -0.843
31 | GUCGAGA | 0.104
32 | UGAAGAC | -0.114
33 | UCUAGCU | -0.795
34 | AUUUGUG | -0.158
35 | CUCGGAA | -0.38
36 | AUGAAUG | 0.68
37 | GCACGAA | -0.184
38 | CUAAAAU | -0.697
39 | UGCGUGC | -0.373
40 | UAUCGAC | -0.766
41 | GCCUAUU | -0.901
42 | AACCUCG | -0.766
43 | CUUGAUC | -0.854
44 | UCUCACG | -0.613
45 | GGGUAAG | 3.97
46 | CCGAAAG | -0.526
47 | CUCGGAG | -0.122
48 | CGUCAAG | -0.249

Row | Sequence | RNAcompete 7-mer binding Z-score
49 | UGGAGCA | 2.21
50 | CACACAA | -0.49
51 | GCACCGU | -0.326
52 | CGGGUCC | 0.723
53 | UACUUGC | -0.734
54 | AAAUACG | -0.0561
55 | AUAUCUG | -0.573
56 | CUAUGAC | -0.679
57 | GCCAAUA | -0.468
58 | AUGCCUA | -0.785
59 | AGUGGGA | 4.3
60 | ACAGGUC | 0.283
61 | UCGCACU | -0.69
62 | CGGGGGC | 2.22
63 | UCAAUCC | -0.639
64 | CUAAGUG | -0.198
65 | GAACAGG | 3.18
66 | GUUCAGU | -0.0488
67 | GCACGUU | -0.337
68 | UCAGAUA | -0.209
69 | AAUAGCG | 0.202
70 | AAUACUC | -0.646
71 | CGCUAAU | -0.628
72 | CAAAUAG | -0.144

Row | Sequence | RNAcompete 7-mer binding Z-score
73 | GCGGGGC | 2.5
74 | AUAGAUA | 0.177
75 | CACUUAC | -0.712
76 | CGGAUUA | 0.37
77 | AUCCCCA | -0.653
78 | GUUACGC | -0.154
79 | GAUAGAA | 0.665
80 | AUGUAAU | -0.366
81 | CCGAGUA | -0.541
82 | GUCUAUG | -0.213
83 | UAUGGAA | 1.22
84 | UCGAUUC | -0.759
85 | CUCCUGG | -0.449
86 | GCCGACA | -0.355
87 | UGCUCCG | -0.683
88 | AUCGAUG | 0.177
89 | CGUUAGU | -0.402
90 | GCGGGAA | 2.5
91 | UGGAAGG | 3.68
92 | CUAGAGU | -0.446
93 | CAACUCU | -0.916
94 | GACGAUC | -0.428
95 | CCAUUCA | -0.777
96 | CCCCUAC | -0.748

Row | Sequence | RNAcompete 7-mer binding Z-score
97 | AGCAGCC | -0.526
98 | CGUAGAG | 0.636
99 | UUGCCUC | -0.89
100 | GUCUGAA | -0.562
101 | CACUUUA | -0.814
102 | UCGCGCG | -0.391
103 | AGUCACG | -0.235
104 | GCCGAGG | 0.505
105 | CCCCCUU | -0.595
106 | CGUAACC | -0.508
107 | AUAAAUG | 0.0641
108 | UCACUCG | -0.548
109 | UGAGCGU | 0.323
110 | CCACGAA | -0.544
111 | CAGCAGU | -0.107
112 | AGAAUCU | -0.77
113 | CACGCCU | -0.683
114 | AGCUUUC | -0.839
115 | UGGUACU | 0.195
116 | UGUGGCA | 0.632
117 | AGGCUGA | 0.297
